The list shows a part of the results.
Target: T1, OsWOX13 (Oryza sativa, UniProt Q5QMM3 1-267)
T1 sequence: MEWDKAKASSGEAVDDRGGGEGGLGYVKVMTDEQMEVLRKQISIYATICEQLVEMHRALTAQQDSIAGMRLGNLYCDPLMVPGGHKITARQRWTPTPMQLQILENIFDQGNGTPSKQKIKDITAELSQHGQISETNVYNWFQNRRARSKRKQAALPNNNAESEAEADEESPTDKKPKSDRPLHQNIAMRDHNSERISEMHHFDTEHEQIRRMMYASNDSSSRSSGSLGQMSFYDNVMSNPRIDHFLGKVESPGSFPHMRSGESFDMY
Experiment: protein-binding microarray (RPBM); PBS, 2% BSA, 51.3 ng/ul salmon testes DNA, 50 uM zinc acetate, 200 nM TF, 25 C, 1 h; high values mean tight binding
Conditions: protein: recombinant; tags: N-terminal polyhistidine and DsRed monomer fusion (pET32a); label: CyDye5-dUTP incorporated in the synthesized complementary strand; 3' TTTTT single-stranded linker to array surface; dsDNA, one strand shown
Procedure, shortened: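 For the binding signal, per-feature fluorescence intensity was read in arbitrary units on an Axon 4000B scanner. Before scanning, a 2% BSA-blocked custom Agilent array made double-stranded with Cy5-dUTP was washed after 1 h at 25 °C with 200 nM protein and 50 µM zinc acetate. The proteins were Ni–NTA-purified transcription factors with N-terminal polyhistidine and DsRed fusions, expressed in E. coli BL21-CodonPlus.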

Sequence	binding signal
TGAATTCAATCACGCTATCAGTACAACAACAACATCTTAACGGAGTCACCTAGTGCAG	11900 fluorescence intensity (a.u.)
ACTAAATTATACCATTTACATGACTATGCATTCAGAAAATCGGAGTCACCTAGTGCAG	7120 fluorescence intensity (a.u.)
AGTTTGGTTATATTGTAATTGAATGTAATCTGCTTTACAACGGAGTCACCTAGTGCAG	5450 fluorescence intensity (a.u.)
AATACGTGATAGAAATCGTCTGATACACGACAGGTATCGCCGGAGTCACCTAGTGCAG	5480 fluorescence intensity (a.u.)
CAGTTAAATTACACCTGGTAGTACCATTTTGAGATGTAAGCGGAGTCACCTAGTGCAG	6870 fluorescence intensity (a.u.)
TGGGTCCACTAATTTAAATGAAAATCAACGGTGGGATTAGCGGAGTCACCTAGTGCAG	6380 fluorescence intensity (a.u.)
CTTCAAAATCATGTATAAATTGTTTTAAATCACCATGTAGCGGAGTCACCTAGTGCAG	7740 fluorescence intensity (a.u.)
AGCCAATTCACACAATAATTGCTTACTATACTATTAATATCGGAGTCACCTAGTGCAG	4330 fluorescence intensity (a.u.)
TACATGCTAATTAAACACTTCTATTACTACGTACAGAGCACGGAGTCACCTAGTGCAG	8340 fluorescence intensity (a.u.)
TTGACAGATGTAATTATAGTACAATCATAGTGTAATTACACGGAGTCACCTAGTGCAG	30700 fluorescence intensity (a.u.)
CAAGGATATTTAGATAATTGACATAGACCGAGATGATACACGGAGTCACCTAGTGCAG	31400 fluorescence intensity (a.u.)
ATAATTGACATGTGGGCCCACGATTTCTATTATTTCCAAACGGAGTCACCTAGTGCAG	44100 fluorescence intensity (a.u.)
CCTAATTAAGTGGATTTTAGTTTTATATATTATTTAACTTCGGAGTCACCTAGTGCAG	25700 fluorescence intensity (a.u.)
ATATATATATATATATATATATATATATTATCGCTAATAACGGAGTCACCTAGTGCAG	31200 fluorescence intensity (a.u.)
TACAAAATCATCCATCAACCGCAAAATCAGATATCGACCGCGGAGTCACCTAGTGCAG	3560 fluorescence intensity (a.u.)
GAGTATATCATTTCTCAATTTATTATTTATAGGAGTGTAGCGGAGTCACCTAGTGCAG	4750 fluorescence intensity (a.u.)
CCCGATTAATATGATAATTTCTAGGCCGTGAGAGTGAACACGGAGTCACCTAGTGCAG	18400 fluorescence intensity (a.u.)
CTCCACGTGACTGAAATGCCCTCCGTACTTAAACCACCAACGGAGTCACCTAGTGCAG	3440 fluorescence intensity (a.u.)
ATGTTTGACATAGATAAATTAAAATCGGGAAGAGTGCTACCGGAGTCACCTAGTGCAG	14300 fluorescence intensity (a.u.)
GGGGCGGTGGCGGCGGTGGATTGGGCGGTAACGCGATGGCCGGAGTCACCTAGTGCAG	4080 fluorescence intensity (a.u.)
GCCAATTGAGAATTTGAGATCGTTCGATCATCACCTCGTTCGGAGTCACCTAGTGCAG	3760 fluorescence intensity (a.u.)

Sequence	binding signal
TTTTCTGATAAAATTTACAATCAAATGACTTTAAAGAATCCGGAGTCACCTAGTGCAG	3830 fluorescence intensity (a.u.)
AACACTAAATTTCAATTCAGTTTCAGCATATACGAATAGGCGGAGTCACCTAGTGCAG	8250 fluorescence intensity (a.u.)
CTAATTTGCCAGTCAAATATAGTGGAGGACGAGAAATGGTCGGAGTCACCTAGTGCAG	17400 fluorescence intensity (a.u.)
CTATTACTAATCTATATAATGGACATAGGGCTGGAAAGCACGGAGTCACCTAGTGCAG	4370 fluorescence intensity (a.u.)
GCTATGATTAACCGTAAGCTATCTACAAGAGTATAGATCCCGGAGTCACCTAGTGCAG	13800 fluorescence intensity (a.u.)
GATTGATTCCACTCAAGATTGTCGTCAATCGGTCTCTGCACGGAGTCACCTAGTGCAG	11000 fluorescence intensity (a.u.)
ATTTTGATAATGTTGCTAAATTTTAGCAAGATTTCATATGCGGAGTCACCTAGTGCAG	3690 fluorescence intensity (a.u.)
AGGATTGGGATTAAATGTAAGAGGAAGAATGAATGGTTAGCGGAGTCACCTAGTGCAG	6070 fluorescence intensity (a.u.)
GGCTTAATGGCCTTAACTGAGGAATGGACCACTTCCAAGCCGGAGTCACCTAGTGCAG	17000 fluorescence intensity (a.u.)
TGATGTAATTGCCTTTGCTTGTCCCTCAGAAGTATTCGTTCGGAGTCACCTAGTGCAG	16700 fluorescence intensity (a.u.)
GTTTGAACAGTCAATTGATTGGGCTCACCAATTAGAGATGCGGAGTCACCTAGTGCAG	50000 fluorescence intensity (a.u.)
TGTGTTGATTAAATCAAAATTCTCAATAAAATACACTAGTCGGAGTCACCTAGTGCAG	24700 fluorescence intensity (a.u.)
AGATTGACGGGGATGTCATTGTGCCTGAGCAGATATAGAACGGAGTCACCTAGTGCAG	8360 fluorescence intensity (a.u.)
AAGCAAATTAAGAAGATTGCCCACTTTCGAAAGCGCCAAGCGGAGTCACCTAGTGCAG	9780 fluorescence intensity (a.u.)
TGTAATCTATCAAGAATCCATTACTGAGACACAAATGCATCGGAGTCACCTAGTGCAG	4280 fluorescence intensity (a.u.)
TGATGATGCACGCTGATTGACCGTTCTATGCAGATCCCATCGGAGTCACCTAGTGCAG	26900 fluorescence intensity (a.u.)
AGTTTTCAAAATTTGACTTTAAAATTTAAATCTTAAATCACGGAGTCACCTAGTGCAG	3970 fluorescence intensity (a.u.)
ATTGATGAACTGATATGCGCTGAGATTCCTGACAGAGACACGGAGTCACCTAGTGCAG	7660 fluorescence intensity (a.u.)
CCTTATTGAAATGAAGGTTAACTAAGTGTCCTTCCTAATGCGGAGTCACCTAGTGCAG	3550 fluorescence intensity (a.u.)
ATTAATTAGTCTTAATAGATTCGTCTCGCAATTTCCTGACCGGAGTCACCTAGTGCAG	45700 fluorescence intensity (a.u.)
CTCAATAATTAAGTTCTTGATTAACATTGATATTACTTTCCGGAGTCACCTAGTGCAG	24600 fluorescence intensity (a.u.)
